The values that follow come from the antibiotic and cytotoxicity screens of Wong et al. (2023).

The other results are listed elsewhere or left out.

The test system of the first assay is HepG2. The experiment in a line: cytotoxicity call (relative viability < 0.9). Conditions: 10 µM.
`O=C(C[C@H]1C[C@H]2c3cc(NC(=O)Nc4ccccc4)ccc3O[C@H]2[C@@H](CO)O1)NCCN1CCCCC1`: the cytotoxicity call was “inactive”.
The same measure, in the same setting: the entry for `CN1C[C@H](O)COC[C@H]2O[C@H](CC(=O)N3CCN(c4ccccc4)CC3)CC[C@@H]21` is “inactive”; for `C[C@H](CO)N1C[C@H](C)[C@H](CN(C)S(=O)(=O)c2ccccc2F)Oc2ncc(C#Cc3ccncc3)cc2C1=O` it is “active”.
The same measure, in the same setting: the entry for `C[C@H]1CN([C@@H](C)CO)C(=O)Cc2cc(NC(=O)CCCN(C)C)ccc2O[C@@H]1CN(C)S(=O)(=O)c1ccccc1` is “inactive”; for `C[C@H]1CCCCO[C@H](CN(C)S(=O)(=O)c2cccs2)[C@@H](C)CN([C@@H](C)CO)C(=O)c2cc(NC(=O)Nc3cccc4ccccc34)ccc2O1` it is “inactive”.
The same measure, in the same setting: the entry for `C[C@@H]1CN([C@@H](C)CO)C(=O)c2cccc(NS(=O)(=O)c3ccc(Cl)cc3)c2O[C@H]1CN(C)Cc1ccc(C(F)(F)F)cc1` is “inactive”.

Another assay concerns S. aureus RN4220. The experiment in a line: growth inhibition call (relative growth <= 0.2). Particulars: 50 µM.
Regarding `Cn1c(=O)c2c(nc(Sc3nnc(N)s3)n2C)n(C)c1=O`, the growth inhibition call was “inactive”.
The same measure, in the same setting: then `CNc1nc(N2CCCC2)nc(N)c1[N+](=O)[O-]`, with “inactive”; and `C[C@@H]1CCCCO[C@H](CN(C)C(=O)c2ccccc2)[C@@H](C)CN([C@H](C)CO)C(=O)c2cc(NC(=O)Cc3ccccc3)ccc2O1`, with “inactive”.
Same read-out and setting: then `C[C@@H]1CN([C@@H](C)CO)C(=O)c2cc(C#Cc3cccc(F)c3)cnc2O[C@H]1CN(C)C(=O)C1CCOCC1`, with “inactive”.
Same read-out and setting: then `C[C@H](CO)N1C[C@H](C)[C@@H](CN(C)S(=O)(=O)c2ccc(Cl)cc2)Oc2ccc(N(C)C)cc2C1=O`, with “inactive”; and `COc1ccc(CN(C)C[C@@H]2OCCCC[C@H](C)Oc3ccc(NS(=O)(=O)c4ccc(F)cc4)cc3C(=O)N([C@@H](C)CO)C[C@H]2C)cc1`, with “inactive”.
For the compound `c1cc(CNC2CCCC2)cs1`, the growth inhibition call is “inactive”.
In the case of `COc1ccc(NC(=O)N(C)C[C@H]2Oc3ccc(NC(=O)Cn4cnnn4)cc3C(=O)N([C@@H](C)CO)C[C@H]2C)cc1`, the growth inhibition call was “inactive”.
Same read-out and setting: the entry for `CN1CCN(C(=O)C[C@H]2CC[C@@H](NC(=O)Cc3ccccn3)[C@H](CO)O2)CC1` is “inactive”; for `CN(C)CCN1CCN(C)C2(CCN(S(=O)(=O)C3CC3)CC2)C1=O` it is “inactive”; for `Cc1noc(C)c1NC(=O)N(C)C[C@@H]1Oc2ccc(NS(=O)(=O)c3c(C)noc3C)cc2C(=O)N([C@@H](C)CO)C[C@H]1C` it is “inactive”.
The same measure, in the same setting: the entry for `COc1ccc(NC(=O)Nc2ccc3c(c2)CC(=O)N([C@H](C)CO)C[C@@H](C)[C@@H](CN(C)S(=O)(=O)c2cn(C)cn2)O3)cc1` is “inactive”.
On the same count and under the same terms, the entry for `COc1ccc(NC(=O)Nc2ccc3c(c2)C(=O)N([C@H](C)CO)C[C@@H](C)[C@@H](CN(C)Cc2ccc4c(c2)OCO4)OCCCC[C@H](C)O3)cc1` is “inactive”; for `CC(C)CC#Cc1cnc2c(c1)C(=O)N([C@H](C)CO)C[C@H](C)[C@@H](CN(C)C(=O)c1ccc3c(c1)OCO3)O2` it is “inactive”.
For `CN1CCN(C(=O)C[C@@H]2CC[C@H](NC(=O)c3ccc4c(c3)OCO4)[C@H](CO)O2)CC1`, the growth inhibition call was “inactive”.
Turning to `C[C@@H]1CN([C@H](C)CO)C(=O)c2cc(NC(=O)Cn3cnnn3)ccc2O[C@@H]1CN(C)Cc1ccc(C(=O)O)cc1`, the growth inhibition call is “inactive”.
Same read-out and setting: then `C[C@@H]1CCCCO[C@H](CN(C)C(=O)Nc2ccc(F)cc2)[C@@H](C)CN([C@@H](C)CO)C(=O)c2cc(NC(=O)CCC(F)(F)F)ccc2O1`, with “inactive”.
Still for that read-out and setting: the entry for `C[C@@H]1CCCCO[C@@H](CN(C)Cc2ccc(C(=O)O)cc2)[C@@H](C)CN([C@H](C)CO)C(=O)c2cc(NC(=O)Nc3ccc4c(c3)OCO4)ccc2O1` is “inactive”.
For the compound `CN(C)CCCNC(=O)C[C@H]1CC[C@@H]2[C@H](COc3ccc(NS(C)(=O)=O)cc3C(=O)N2C)O1`, the growth inhibition call was “inactive”.
On to `CC(C)NC(=O)Nc1ccc2c(c1)C(=O)N([C@@H](C)CO)C[C@H](C)[C@@H](CN(C)S(=O)(=O)c1ccccc1)O2`, for which the growth inhibition call was “inactive”.
`CO[C@@H](CNS(C)(=O)=O)c1ccsc1`: the growth inhibition call is “inactive”.
The same measure, in the same setting: the entry for `CO[C@H]1O[C@H](CO)[C@@H](OC(=O)Nc2ccccc2-c2ccccc2)[C@H](OC(=O)Nc2ccc3c(c2)OCO3)[C@@H]1OC(=O)Nc1ccc2c(c1)OCO2` is “inactive”.
As to `C[C@H](CO)N1C[C@H](C)[C@@H](CN(C)S(=O)(=O)c2ccc(F)cc2)Oc2ccc(NS(=O)(=O)c3ccc(F)cc3)cc2C1=O`, the growth inhibition call is “inactive”.
The same measure, in the same setting: then `Cc1ccc(S(=O)(=O)Nc2ccc3c(c2)C(=O)N([C@H](C)CO)C[C@@H](C)[C@@H](CN(C)S(=O)(=O)c2ccc(F)cc2)OCCCC[C@@H](C)O3)cc1`, with “inactive”; and `C[C@@H]1CCCCO[C@@H](CN(C)C(=O)Nc2ccccc2)[C@H](C)CN([C@@H](C)CO)C(=O)c2cc(NC(=O)c3ccncc3)ccc2O1`, with “inactive”; and `C[C@@H]1CN([C@H](C)CO)C(=O)c2cc(NS(=O)(=O)c3cn(C)cn3)ccc2O[C@@H]1CN(C)Cc1ccc(C(=O)Nc2ccccc2N)cc1`, with “inactive”.
The same measure, in the same setting: then `COc1ccc(NC(=O)Nc2ccc3c(c2)C(=O)N([C@H](C)CO)C[C@H](C)[C@@H](CN(C)C(=O)Nc2cccc4ccccc24)OCCCC[C@@H](C)O3)cc1`, with “inactive”; and `Cc1ccc(S[C@]2(C(=O)NCc3ccccc3)CC(=O)N(Cc3ccccc3)[C@@H]2c2ccc(COC(=O)NCCCCCC(=O)NO)cc2I)cc1`, with “inactive”; and `Cc1ccc(S(=O)(=O)Nc2cccc3c2O[C@@H](CN(C)Cc2ccc(-c4ccccc4)cc2)[C@@H](C)CN([C@@H](C)CO)C3=O)cc1`, with “inactive”.
As for `Cc1noc(C)c1S(=O)(=O)Nc1ccc2c(c1)C(=O)N([C@@H](C)CO)C[C@H](C)[C@@H](CN(C)C(=O)Nc1ccccc1)OCCCC[C@H](C)O2`, the growth inhibition call is “inactive”.
On the same count and under the same terms, the entry for `OCC(O)C(O)C(O)C(O)C(O)CO` (stereo unspecified) is “inactive”; for `C[C@@H]1CN([C@@H](C)CO)C(=O)c2cc(NC(=O)Nc3ccc(C(F)(F)F)cc3)ccc2O[C@@H]1CN(C)Cc1ccccc1` it is “inactive”; for `CC(C)NC(=O)Nc1ccc2c(c1)C(=O)N([C@H](C)CO)C[C@H](C)[C@@H](CN(C)S(=O)(=O)c1cccs1)O2` it is “inactive”.
In the case of `C[C@H](C(=O)N(C)C[C@H]1OCc2ccccc2-c2c(n(C)c3ccccc23)C(=O)N([C@@H](C)CO)C[C@@H]1C)c1ccccc1`, the growth inhibition call is “inactive”.
Take `O=C(C[C@H]1C[C@H]2c3cc(NC(=O)Nc4ccccc4)ccc3O[C@H]2[C@@H](CO)O1)NCCN1CCCCC1`: the growth inhibition call was “inactive”.
On to `CN1C[C@H](O)COC[C@H]2O[C@H](CC(=O)N3CCN(c4ccccc4)CC3)CC[C@@H]21`, for which the growth inhibition call is “inactive”.
On the same count and under the same terms, the entry for `C[C@H](CO)N1C[C@H](C)[C@H](CN(C)S(=O)(=O)c2ccccc2F)Oc2ncc(C#Cc3ccncc3)cc2C1=O` is “inactive”; for `C[C@H]1CN([C@@H](C)CO)C(=O)Cc2cc(NC(=O)CCCN(C)C)ccc2O[C@@H]1CN(C)S(=O)(=O)c1ccccc1` it is “inactive”.
Same read-out and setting: then `C[C@H]1CCCCO[C@H](CN(C)S(=O)(=O)c2cccs2)[C@@H](C)CN([C@@H](C)CO)C(=O)c2cc(NC(=O)Nc3cccc4ccccc34)ccc2O1`, with “inactive”; and `C[C@@H]1CN([C@@H](C)CO)C(=O)c2cccc(NS(=O)(=O)c3ccc(Cl)cc3)c2O[C@H]1CN(C)Cc1ccc(C(F)(F)F)cc1`, with “inactive”.
